Assay results taken from article PMC4336329 (PLoS ONE, 2015).
Hit rate of the full screen: of about 310,000 compounds, about 2,200 (0.71%) showed an effect of 50% or more. The effect is printed as a negative number. The list shows a part of the results.

biological target: human ether-à-go-go-related gene (hERG) potassium channel (human, UniProt Q12809); test: primary screen, population patch clamp on CHO cells stably expressing hERG
Sequence (Q12809 whole entry, looked up): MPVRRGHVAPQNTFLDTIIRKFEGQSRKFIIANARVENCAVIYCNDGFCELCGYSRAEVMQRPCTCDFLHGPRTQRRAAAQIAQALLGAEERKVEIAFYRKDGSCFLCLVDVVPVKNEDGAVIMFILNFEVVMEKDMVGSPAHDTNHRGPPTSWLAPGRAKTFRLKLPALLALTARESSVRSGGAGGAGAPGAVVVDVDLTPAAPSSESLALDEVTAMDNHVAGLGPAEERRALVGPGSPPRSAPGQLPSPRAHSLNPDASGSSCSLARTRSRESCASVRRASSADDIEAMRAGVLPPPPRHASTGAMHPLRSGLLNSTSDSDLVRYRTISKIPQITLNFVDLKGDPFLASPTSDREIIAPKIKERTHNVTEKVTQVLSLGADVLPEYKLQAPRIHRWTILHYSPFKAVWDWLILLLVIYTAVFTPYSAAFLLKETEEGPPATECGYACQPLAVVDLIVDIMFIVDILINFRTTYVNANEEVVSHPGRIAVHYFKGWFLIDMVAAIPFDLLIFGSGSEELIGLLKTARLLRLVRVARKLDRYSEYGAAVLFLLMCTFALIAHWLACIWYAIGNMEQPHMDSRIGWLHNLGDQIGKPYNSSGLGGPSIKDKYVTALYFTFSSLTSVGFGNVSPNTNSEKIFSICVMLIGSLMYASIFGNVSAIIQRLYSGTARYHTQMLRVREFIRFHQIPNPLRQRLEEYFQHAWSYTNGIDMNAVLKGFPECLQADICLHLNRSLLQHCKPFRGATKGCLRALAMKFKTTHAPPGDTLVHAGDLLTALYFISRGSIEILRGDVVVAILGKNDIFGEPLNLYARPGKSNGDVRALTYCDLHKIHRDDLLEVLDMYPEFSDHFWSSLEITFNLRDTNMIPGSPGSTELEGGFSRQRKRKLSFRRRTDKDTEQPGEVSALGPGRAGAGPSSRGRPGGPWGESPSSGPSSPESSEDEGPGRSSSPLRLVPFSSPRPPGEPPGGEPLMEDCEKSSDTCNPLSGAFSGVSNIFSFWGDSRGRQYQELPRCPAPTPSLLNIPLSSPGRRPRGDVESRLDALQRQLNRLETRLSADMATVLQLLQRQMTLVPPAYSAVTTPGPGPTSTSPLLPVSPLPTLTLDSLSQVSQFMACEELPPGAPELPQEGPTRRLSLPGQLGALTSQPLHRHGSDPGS

In order of rising “hERG current change (%, negative = inhibition) at 1uM” value:
1. c1ccc(-c2nc3nc4ccccc4nc3n2Cc2ccco2)cc1  -15.1%
2. COc1ccc(CCN(Cc2ccccn2)C(=S)Nc2ccc(C)cc2)cc1OC  -14.2%
3. O=C(COc1ccc(Cl)cc1)Nc1ccccc1C(=O)NCc1cccnc1  -1.68%
4. CC(=O)Nc1nnc(CCN2CCCCC2)s1  -0.872%
5. Brc1[nH]nc2ccccc12  -0.724%
6. COc1ccc(C(=O)NC2CC3CCCC(C2)N3Cc2ccccc2)c(OC)c1 (stereo not shown)  0.894%
7. COc1ccc(-c2c3c(=O)n(C)c(=O)n(C)c3cn2-c2ccc(O)cc2)cc1  0.946%
8. O=C1CCC(C(=O)OCc2cc(=O)oc3ccc4ccccc4c23)=NN1  1.06%
9. Cc1cccc(-n2nnc(C(=O)N3CCc4ccccc4C3)c2N)c1  1.93%
10. CCCCn1c(=O)c(C(=O)OCC)c(O)c2ccccc21  2.5%
11. COC(=O)c1sc(=S)n(-c2cccc(Cl)c2)c1N  2.67%
12. COc1ccc(NS(=O)(=O)c2cccc(NC(=O)C34CCC(CC3)C4)c2)cc1  3.23%
13. c1ccc(C2c3[nH]c4ccccc4c3CCN2Cc2cccn2-c2cccnc2)nc1 (stereo not shown)  3.35%
14. CC(OC(=O)CCSc1ccccc1)C(=O)Nc1ccc(S(N)(=O)=O)cc1 (stereo not shown)  4.55%
15. CC(=O)c1c(C)[nH]c(C(=O)COC(=O)c2ccc3c(=O)n4c(nc3c2)CCC4)c1C  4.65%
16. O=C(NN1C(=O)C2C3c4ccccc4C(c4ccccc43)C2C1=O)c1ccc(Cl)cc1 (stereo not shown)  4.89%
17. CCOC(=O)CNC(=S)N(Cc1ccccc1F)C1CCCCC1  5.28%
18. CC1CCN(C(=O)C2CCN(C(=O)c3ccc(C(C)(C)C)cc3)CC2)CC1  5.69%
19. O=C(NC1CCCC1)c1cccc(S(=O)(=O)Nc2ccccc2F)c1  6.14%
20. C/C(=N/NC(=O)c1ccc2c(c1)OCO2)c1ccc(NC(=O)c2ccc(F)cc2)cc1  6.26%
21. COc1ccc(-c2sc3ccc(OC)cc3c2-c2ccc(OC)c(F)c2)cc1  6.88%
22. COC(=O)c1c(C(=O)OC)c(-c2ccc(C(C)(C)C)cc2)n2c1CS(=O)C2 (stereo not shown)  7.34%
23. CCOc1ccccc1N1CC(C(=O)Nc2cc(Cl)ccc2-n2cncn2)CC1=O (stereo not shown)  7.45%
24. CC(=O)NC(CC(=O)Nc1nc(C)cs1)c1ccccc1 (stereo not shown)  7.63%
25. Cn1ccnc1SCC(=O)c1cc2ccccc2o1  7.83%
26. O=C1CS/C(=N\N=C\c2ccccc2Cl)N1CC1CC1  8.59%
27. CC1(C)CC(c2nc(-c3ccc(Br)cc3)cs2)CCS1.Cl (stereo not shown)  8.62%
28. CC(=O)Nc1ccc(S(=O)(=O)NCCC(=O)Nc2ncccc2C)cc1  9.09%
29. CCOC(=O)N1CCN(C(=O)c2ccccc2NC(=O)c2ccc(OC)cc2)CC1  9.15%
30. COc1cccc(Cn2cnc3c(NS(=O)(=O)c4cccc(Cl)c4Cl)c(C)c(C)cc32)c1  9.74%
31. O=C(O)c1ccccc1/C=N/NC(=S)NCc1ccccc1  9.88%
32. O=C(c1cc2c(=O)n3ccccc3nc2s1)N1CCN(c2cccc(Cl)c2)CC1  10.4%
33. CCN1CCN(Cc2cc(OC)c(OC)cc2[N+](=O)[O-])CC1  10.4%
34. Cc1ccccc1OCC(=O)NCCC1=CCCCC1  11.2%
35. COc1ccc(NC(=O)c2cccc(N3C(=O)C4CC=C(C)CC4C3=O)c2)c(OC)c1 (stereo not shown)  11.7%
36. CCOC(=O)N1CCC(NC(=O)c2cc(COc3ccccc3SC)on2)CC1  12.1%
37. Cc1cc(-c2csc(N)n2)c(C)n1Cc1ccco1  12.5%
38. CC(=O)NCCNC(=O)c1oc2ccccc2c1CSc1ncn[nH]1  12.7%
39. CCc1cc(C(=O)Nc2ccccc2N2CCOCC2)sc1C  13.2%
40. COc1ccc(C(=O)NC(NC(=S)Nc2ccc(S(N)(=O)=O)cc2)C(Cl)(Cl)Cl)cc1 (stereo not shown)  14.3%
41. Cc1ccc(N(CCC#N)C(=O)COC(=O)c2nc3nc(C)cc(C)n3n2)cc1  14.6%
42. Cc1ccsc1C(C(=O)NCc1ccccc1)N(C(=O)c1csnn1)c1ccccc1 (stereo not shown)  14.6%
43. Cc1sc2ncnc(N3CCC(C(=O)NNC(=O)c4ccc(Cl)cc4)CC3)c2c1C  14.9%
